Experimental data: the supplement of paper PMC10338343
± gives the standard deviation. The entries are a selection whose mix differs from that of the whole data set.

Each sequence was assayed on MIWI (PIWIL1) piRISC loaded with piRNA #1 (30 nt) (assay: pre-steady-state target cleavage rate (min^-1); MIWI and MILI are mouse PIWI proteins and EfPiwi is from a freshwater sponge; tags in brackets are library labels; higher = faster piRNA-guided slicing of the target). Conditions: guide: piRNA #1 5'p-UGAGGUAGUAGGUUGUAUAGUAUCCAGAGG; auxiliary factor: 500 nM mouse GTSF1.
Summary of the method: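 The pre-steady-state cleavage rate was derived from a burst-and-steady-state fit of Cleave-'n-Seq data. For these assays, 1 nM active affinity-purified piRISC loaded with a single synthetic guide was mixed with […] a transcribed, DNA-blocked target RNA library in HEPES–potassium acetate buffer at 33 °C, with or without 500 nM GTSF1 partner protein, for 0–8 or 0–960 min. Sequencing counts of uncleaved targets were normalised to depth and to weakly complementary targets, and k3 was capped at 0.0001 min^-1 after three trials were pooled.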
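Note: 1 nM active piRISC with 0.1 nM target library at 33 °C single turnover.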

Q: Which “pre-steady-state target cleavage rate” value does the source give for GCUCUGGAUACUAUACAACCUUCUAGCUCA here?
A: Its value is 0.266 ± 0.041.

Q: “GGAGACGAUACUAUACAACCUACUACCUCA [g2:g24:cont:t1A]” was tested. Which “pre-steady-state target cleavage rate” value did it give?
A: Its value is 1.77 ± 0.11.

Q: With GGAGUGGAUACUAUACAACCUUCUACCUGA as the sequence, how does the “pre-steady-state target cleavage rate” value read?
A: Its value is 0.102 ± 0.02.

Q: With GGAGACGAUACAAAACAACCUACUACCUCA as the sequence, how does the “pre-steady-state target cleavage rate” value read?
A: The value was 0.509 ± 0.083.

Q: With GGAGACCUAACAAUACAUCCUACUACCUCA as the sequence, how does the “pre-steady-state target cleavage rate” value read?
A: The value was 0.0512 ± 0.019.

Q: How did the “pre-steady-state target cleavage rate” value turn out when GGAGAGGAUACUAUACAACCUACUAGCUCA was run?
A: Its value is 0.303 ± 0.038.

Q: GCUCUGGAUACUAUAGAACCUACUACCUCA was tested. Which “pre-steady-state target cleavage rate” value did it give?
A: The value was 0.644 ± 0.057.

Q: How did the “pre-steady-state target cleavage rate” value turn out when CCUCUGGAUACUAUUCAACGUACUACCUCA was run?
A: The value was 0.952 ± 0.062.

Q: How did the “pre-steady-state target cleavage rate” value turn out when GGUCUGGAUACUAUAAACCUACUACCUCA was run?
A: Its value is 0.916 ± 0.11.

Q: How did the “pre-steady-state target cleavage rate” value turn out when GGAGACGAUACUAUACAUCCUACAACCUCA was run?
A: Its value is 0.984 ± 0.063.

Q: With GGAGACGAUACUUUACAACCUACUUCCUCA as the sequence, how does the “pre-steady-state target cleavage rate” value read?
A: Its value is 0.224 ± 0.063.

Q: How did the “pre-steady-state target cleavage rate” value turn out when GGAGACCAUAGUAUACAACCUACAACCUCA was run?
A: The value was 0.361 ± 0.059.

Q: With GGACUGGAUAGUAUACAACCUACUACCACA as the sequence, how does the “pre-steady-state target cleavage rate” value read?
A: The value was 0.264 ± 0.036.

Q: With GGAGAGGAUACUAUAGAACCUACUACCACA as the sequence, how does the “pre-steady-state target cleavage rate” value read?
A: The value was 0.211 ± 0.041.

Q: How did the “pre-steady-state target cleavage rate” value turn out when GCUCUGGAUACUAUACAACCUACUAGCACA was run?
A: Its value is 0.455 ± 0.086.

Q: GCUCUCGAUACUAUACAACCUACUACCUGA was tested. Which “pre-steady-state target cleavage rate” value did it give?
A: Its value is 1.07 ± 0.11.
